# Measurements reported in PubChem BioAssay AID651820 (National Center for Advancing Translational Sciences (NCATS), 2012).
# The campaign covered roughly 340,000 compounds. About 12,000 (3.5%) were called active. Inconclusive results, whose numbers are uncertain, are shown with a selection of clear calls. Calls follow the shape of the dose curve; as a rule, active = well fitted inhibition curve with a large enough effect; inconclusive = small, poorly fitted or top-dose-only effect, or another doubt; inactive = no such curve, though single readings can be large or run the other way. No potency is given beside an inconclusive call; the fits are too rough.
# Assay: qHTS Assay for Inhibitors of Hepatitis C Virus (HCV)
# Settings: Huh7.5.1 HCVcc-Cre (HCVcc is cell-culture hepatitis C virus) infection, luciferase reporter, 44 h; activity change, negative = inhibition: at 41.8 µM (top of the series)
# In short: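 Reporter virus HCVcc-Cre (~0.5 moi) infects cells exposed to compound; seeding density 1,000 cells/well with 4 h settling beforehand. Luminescence, 15 sec read, taken 44 h post-infection following a 15 min RT substrate incubation.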
# % is scaled to controls: 0 for no effect and ±100 for the full control effect; potency is read from the fitted curve at half-maximal effect; tags tell the direction and shape of the fitted curve.
SMILES,Potency,"activity change, negative = inhibition"
CCCCCCCN1C(Nc2ccccc2)=NC[C@@H]1CC(C)C,"inconclusive [inhibitor, single point]",
N#CC1=C(N)Oc2cc(N)ccc2C1c1cccc(F)c1 (configuration not stated),"inconclusive [inhibitor, single point]",
CCOC(=O)/C(=N\Nc1ccc(Br)cc1)N1CCN(c2ccccc2OC)CC1,"inconclusive [inhibitor, single point]",
COc1ccc(C(=O)NNC(=S)NC(=O)c2ccc(Cl)cc2)cc1,"inconclusive [inhibitor, single point]",
COc1ccccc1NC(=O)Cn1cnc2c(cnn2-c2ccccc2)c1=O,"inconclusive [inhibitor, single point]",
CCCCC[n+]1ccn(C2=C([O-])c3ccccc3C(=O)/C2=N\S(=O)(=O)c2ccccc2)c1,"inconclusive [inhibitor, single point]",
O=C1CCCc2c1cc(C(=O)Nc1ccc(Br)cn1)c(=O)n2-c1ccccc1,,inactive: -19.1%
COCc1cc(C)nc2sc(C(=O)Nc3ccc(OC)cc3)c(N)c12,"inconclusive [inhibitor, single point]",
Cc1ccc(N2CC(C(=O)Oc3cccc(N4C(=O)CCC4=O)c3)CC2=O)cc1 (configuration not stated),"inconclusive [inhibitor, single point]",
CCOC(=O)C1CCN(C(C(=O)NC2CCCC2)c2ccc(C)cc2)CC1 (configuration not stated),,inactive: -7.13%
COc1cccc(NC(=O)N2CCCC2C(=O)NC23CC4CC(CC(C4)C2)C3)c1 (configuration not stated),,inactive: 13.9%
CC(=O)c1cccc(CN2CCC(C(=O)Nc3cccc(-c4ccn[nH]4)c3)CC2)c1,active: 6.31 µM,
Cc1ccc(C#N)c(SCc2cc3c(cc2Cl)OCO3)n1,,inactive: 7.94%
C1CNC(C23CC4CC(CC(C4)C2)C3)=N1,,inactive: 1.92%
CCc1ccc(OCC(=O)Nc2ccc3oc(=O)ccc3c2)cc1,,inactive: 3.14%
CN(C)CCCNC(=O)C[C@H]1C[C@H](C(=O)N2CCCCC2)[C@@]2(CCc3ccccc3)c3[nH]c4ccc(Cl)cc4c3CCN2C1=O,"inconclusive [inhibitor, single point]",
O=C(Cc1c(O)c2ccccc2[nH]c1=O)NC1CCCCCC1,,inactive: -0.346%
O=C(N/N=C\c1ccco1)Nc1cccc(Cl)c1,,inactive: -0.243%
Cc1ccc(OCC(=O)N2CCN(C3CCC(c4ccccc4)CC3)CC2)cc1 (configuration not stated),"inconclusive [inhibitor, full curve]",
c1nnc(-c2ccc3c(c2)OCO3)o1,"inconclusive [inhibitor, single point]",
CCCCCC(=O)Nc1cccc(C2=NOC3(C2)C[C@H](C(N)=O)N(C(=O)CC)C3)c1 (some centres not stated),,inactive: -4.33%
Cc1nn(-c2ccc(N3CCOCC3)nn2)c(C)c1CCC(=O)NCc1ccccc1,,inactive: 2.77%
CN(c1ccccc1)S(=O)(=O)c1cccc(NC(=O)Cc2n[nH]c(=O)c3ccccc23)c1,active: 10 µM,
COC1(OC)C(/C=C/c2ccc(C)cc2)C(C#N)(C#N)C1(OC)OC (configuration not stated),"inconclusive [inhibitor, single point]",

SMILES,Potency,"activity change, negative = inhibition"
CCN1C(=NCCc2ccccn2)N[C@@H](c2cccc(F)c2)C(C(=O)OC)=C1C,,inactive: -28.1%
[N-]=[N+]=CC(=O)CC(c1ccccc1)N1C(=O)c2ccccc2C1=O (configuration not stated),"inconclusive [inhibitor, single point]",
O=C(CSc1ncnc2c1cnn2-c1ccc(F)cc1)NCC1CCCO1 (configuration not stated),"inconclusive [inhibitor, single point]",
O=C(CSc1nc2ccsc2c(=O)n1Cc1ccccc1)NCc1ccco1,active: 8.91 µM,
CCOC(=O)c1cccc(C2=CC(=O)C[C@H](c3ccc(OC)c(OC)c3)C2)c1,active: 12.6 µM,
O=C(CSc1ccc(-c2ccncc2)nn1)N1CCN(c2ccccc2)CC1,"inconclusive [inhibitor, partial curve, poor fit]",
Cc1cccc(NC(=S)/N=C(\N)Nc2nc(C)c3ccc(C)cc3n2)c1,active: 2 µM,
Cc1cc(C)cc(NC(=S)NCc2ccc(F)cc2)c1,"inconclusive [inhibitor, partial curve]",
COc1cccc(C(=O)NCCCNC(=O)c2ccccn2)c1,,inactive: 15.4%
O=C(CSc1nnc2scc(-c3ccc(Cl)cc3)n12)NCc1ccc2c(c1)OCO2,"inconclusive [inhibitor, single point]",
COc1ccc(-c2nc(Cc3ccc(Cl)cc3)no2)cc1OC,"inconclusive [inhibitor, partial curve]",
CCN(CC)S(=O)(=O)c1cc(NC(=O)C(C)N2CC=C(c3ccccc3)CC2)ccc1C (configuration not stated),active: 11.2 µM,
CC(=O)c1c(C)[nH]c(C(=O)OCC(=O)NCc2ccc3c(c2)OCO3)c1C,"inconclusive [inhibitor, single point]",
CC/C(=N\NC(=S)NC(C)C)c1ccc(OC(F)F)cc1,active: 10 µM,
O=C(CCC1CCCC1)Nc1ccon1,,inactive: 13%
Cc1[nH]nc(-c2ccc(OCc3cnn(-c4ccccc4)c3)cc2O)c1Oc1ccc(Cl)cc1,"inconclusive [inhibitor, single point]",
CN(N)c1ccc2c(C(F)(F)F)cc(C(F)(F)F)nc2n1,,inactive: 7.57%
Cc1cc(NC(=O)CCCn2cnc([N+](=O)[O-])n2)no1,,inactive: 1.76%
O=C(c1cc(COc2ccc3ncccc3c2)on1)N1CCCC(O)C1 (configuration not stated),"inconclusive [inhibitor, partial curve]",
COc1ccc2c(c1)C(C)=CC(C)(C)N2S(=O)(=O)c1ccc(Br)cc1,"inconclusive [inhibitor, single point]",
CC(=O)Nc1cccc(NC(=O)CSc2ccc(-c3ccccn3)nn2)c1,"inconclusive [inhibitor, single point]",
CNC(=S)N/N=C/c1cn(CCOc2ccc(OC)cc2)c2ccccc12,"inconclusive [inhibitor, single point]",
O=C(CN1CCN(c2ccccc2F)CC1)c1c[nH]c2ccc(F)cc12,"inconclusive [inhibitor, single point]",
